# Data as given in PubChem BioAssay AID624417 (National Center for Advancing Translational Sciences (NCATS), 2012).
# Screen size: about 410,000 compounds; about 6,400 (1.6%) were called active. Inconclusive means that the source gave no clear call. Such entries were picked first, then a sample of the others. Calls follow the shape of the dose curve; as a rule, active = well fitted inhibition curve with a large enough effect; inconclusive = small, poorly fitted or top-dose-only effect; inactive = no such curve, though single readings can be large or run the other way. Potencies of inconclusive entries are left out as doubtful fits.
# Target: Glucagon-like peptide 1 receptor (Homo sapiens) (UniProt P43220)
# Test: qHTS of GLP-1 Receptor Inverse Agonists (Inhibition Mode); also: nearly all actives have a fitted effect of over 55% in size
# Conditions: HEK293 GLP-1R CRE-luciferase, luminescence, 24 h, GLP-1R form is constitutively active; series mostly up to 38.3 µM
# Summary of the method: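 Inverse agonists were sought by their lowering of basal cAMP reporter luciferase output in HEK293 cells stably carrying constitutively active human GLP-1R, after 24 h compound treatment.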
# Potency is read from the fitted curve at half-maximal effect; tags tell the direction and shape of the fitted curve.
# UniProt P43220, sequence (P43220 whole entry, looked up): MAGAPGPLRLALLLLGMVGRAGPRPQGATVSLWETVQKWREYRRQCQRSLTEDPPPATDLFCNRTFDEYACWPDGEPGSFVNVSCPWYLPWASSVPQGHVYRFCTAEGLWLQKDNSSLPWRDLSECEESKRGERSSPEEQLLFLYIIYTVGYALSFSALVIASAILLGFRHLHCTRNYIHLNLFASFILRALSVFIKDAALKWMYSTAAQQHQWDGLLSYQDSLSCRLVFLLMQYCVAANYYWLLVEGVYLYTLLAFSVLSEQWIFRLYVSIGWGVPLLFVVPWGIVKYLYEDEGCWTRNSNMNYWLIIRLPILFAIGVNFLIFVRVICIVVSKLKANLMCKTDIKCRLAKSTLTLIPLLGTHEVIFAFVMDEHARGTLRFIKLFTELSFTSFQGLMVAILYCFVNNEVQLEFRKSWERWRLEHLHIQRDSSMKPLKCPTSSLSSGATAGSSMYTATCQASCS
row,Compound,Potency
1,CC(=O)c1c(C)nn(-c2ccccc2)c1C,inactive
2,N#C/C(=C(/O)c1ccc(-c2cccc([N+](=O)[O-])c2)o1)c1nc2ccccc2s1,"inconclusive [inhibitor, single point]"
3,CCOc1ccc(N2CC(C(=O)N3CCN(c4ccccn4)CC3)CC2=O)cc1 (stereo unspecified),inactive
4,Cc1ccccc1OCC(=O)NCC(c1ccco1)N1CCCCC1 (stereo unspecified),"inconclusive [inhibitor, partial curve, poor fit]"
5,CC(=O)O[C@H]1CC(C)(C)C(=C=C/C(C)=C/C=C/C(C)=C/C=C/C=C(C)/C=C/C=C(\C)C(=O)C[C@@]23O[C@]2(C)C[C@@H](O)CC3(C)C)[C@](C)(O)C1,inactive
6,CCn1c(CCNC(=O)c2ccc(OC)cc2)nnc1SCc1ccc(Cl)c(Cl)c1,"inconclusive [inhibitor, partial curve, poor fit]"
7,N=c1ccn2c(n1)O[C@H]1[C@H](O)[C@@H](CO)O[C@H]12,"inconclusive [inhibitor, full curve, poor fit]"
8,COC(=O)c1ccc(C(=O)OC)c(NC(=O)CN(C)Cc2cccc(Cl)c2Cl)c1,"inconclusive [inhibitor, partial curve, poor fit]"
9,COc1ccc(-c2nc3c4ccccc4ccn3c2CN2CCCCC2)cc1,"inconclusive [inhibitor, partial curve, poor fit]"
10,CCOC(=O)c1ccccc1NS(=O)(=O)c1ccc(C)cc1,"inconclusive [inhibitor, partial curve, poor fit]"
11,CCOC(=O)c1ccc(Nc2nc3nonc3nc2Nc2cccc(C)c2C)cc1,active: 2.82 µM
12,O=C(CN1CCc2ccccc21)Nc1ccc2c(c1)OCCCO2,"inconclusive [inhibitor, single point]"
13,Cc1c(-c2ccccn2)c(=O)[nH]n1-c1ccc(F)cc1,"inconclusive [inhibitor, partial curve, poor fit]"
14,COc1ccccc1NC(=O)Cn1c(=O)n(Cc2cccs2)c(=O)c2cccnc21,inactive
15,O=C(Cn1cc(SCc2ccccc2F)c2ccccc21)N1CCCCCC1,"inconclusive [inhibitor, single point]"
16,Cc1c(NC(=O)c2cccc(NC(=O)COc3ccccc3C#N)c2)c(=O)n(-c2ccccc2)n1C,"inconclusive [inhibitor, partial curve, poor fit]"
17,O=C(Nc1nccs1)Oc1ccccc1,inactive
18,O=C(C1=C(O)C(=O)N(CCN2CCOCC2)C1c1ccc(Br)cc1)c1cc2ccccc2o1 (stereo unspecified),inactive
19,Cc1cccc(NS(=O)(=O)c2cn(C)c(=O)n(C)c2=O)c1C,inactive
20,CC(=C/c1ccccc1)/C=N/NC(=O)c1cnccn1,inactive
21,O=C1C2CC=CCC2C(=O)N1c1ccc(NCCc2ccc(Cl)cc2)c([N+](=O)[O-])c1 (stereo unspecified),"inconclusive [inhibitor, full curve, poor fit]"
22,Cc1csc(SCC(=O)N(c2ccccc2)C(C)C)n1,"inconclusive [inhibitor, partial curve, poor fit]"

row,Compound,Potency
1,Cc1c(OCC(F)(F)F)ccnc1CSc1nc2ccccc2[nH]1,"inconclusive [inhibitor, single point]"
2,COC(=O)c1ccc(C23CC4(C2)[C@H](CN(Cc2cccnc2)[C@@H]4c2ccccc2)C3c2ccc(C(F)(F)F)cc2)cc1 (stereo partly specified),"inconclusive [inhibitor, partial curve, poor fit]"
3,COc1ccc(/C=C/C(=O)NC2CCCCC2C)cc1 (stereo unspecified),"inconclusive [inhibitor, single point]"
4,Oc1ccc2ccccc2c1/C=N/Nc1nnc(-c2ncc[nH]2)c2ccccc12,inactive
5,CSc1ccc(NC(=O)N2CC=C(n3c(=O)[nH]c4ccccc43)CC2)cc1,"inconclusive [inhibitor, single point]"
6,CCOC(=O)N1CCC(NC(=O)c2ccc3c(c2)N(Cc2cc(C)ccc2C)C(=O)c2ccccc2S3(=O)=O)CC1,inactive
7,Cc1ccc(C)c(NC(=O)c2nc(S(C)(=O)=O)ncc2N(Cc2ccc(C(C)(C)C)cc2)Cc2ccco2)c1,"inconclusive [inhibitor, partial curve, poor fit]"
8,O=C(CN1CCN(S(=O)(=O)c2ccc(Br)s2)CC1)N1CCCCC1,"inconclusive [inhibitor, partial curve, poor fit]"
9,COc1cc(C2C(C#N)=C(N)Oc3cc(N(C)C)ccc32)cc2c1OCO2 (stereo unspecified),"inconclusive [inhibitor, partial curve, poor fit]"
10,Cc1[nH]c2ccccc2c1C(=O)CCl,inactive
11,COc1ccc([N+](=O)[O-])cc1NC(=O)Nc1cccc(Cl)c1,"inconclusive [inhibitor, full curve, poor fit]"
12,CCOC(=O)N1CCN(Cc2ccccc2Cl)CC1,inactive
13,O=S(=O)(c1cccc(F)c1)N1CCC(CO)(Cc2cccc(F)c2)CC1,"inconclusive [inhibitor, full curve, poor fit]"
14,O=C(c1cc2nc(-c3ccco3)cc(C(F)(F)F)n2n1)N1CCN(c2ccccn2)CC1,"inconclusive [inhibitor, single point]"
15,O=C(NCc1ccccc1)c1cc2sccc2n1Cc1ccc(F)cc1,active: 10 µM
16,NC(=O)c1cc2ccncc2c2ccccc12,active: 1 µM
17,Cc1ccc(S(=O)(=O)N2CCOCC2)cc1C(=O)NCCCN1CCCC1=O,inactive
18,CC(C)CCOc1ccc(/C=C2\CCn3c2nc2cc(C(=O)O)ccc2c3=O)cc1,inactive
19,COc1ccc2nc(NC(=O)C3CC(=O)N(c4ccc5c(c4)OCCO5)C3)sc2c1 (stereo unspecified),"inconclusive [inhibitor, single point]"
20,O=C(Cc1c[nH]c2ccccc12)N1CCN(S(=O)(=O)c2cccc(Cl)c2Cl)CC1,active: 10 µM
21,Cc1ccccc1CNC(=O)Cn1ccc2cc(S(=O)(=O)N3CCCCC3)ccc21,"inconclusive [inhibitor, partial curve, poor fit]"
22,COc1ccccc1NC(=O)c1sc2nc(C)c(C(=O)Nc3ccc(C)cc3C)c(-c3ccc(Br)cc3)c2c1N,inactive

row,Compound,Potency
1,O=C(COC(=O)c1oc2ccccc2c1CSc1ccc(Cl)cc1)NC1CCCC1,"inconclusive [inhibitor, single point]"
2,COc1ccc(Cl)cc1NC(=O)CN(C)C(C)C(=O)NCC1CCCCC1 (stereo unspecified),inactive
3,COc1ccc(O)c(C(=O)/C=C/c2cc3ccccc3o2)c1,"inconclusive [inhibitor, single point]"
4,CC1(C(=O)NCc2ccc(Cl)cc2)CCN1C(=O)Cc1cccc2ccccc12 (stereo unspecified),"inconclusive [inhibitor, single point]"
5,COCCN1C(=O)CSCC1(C)C(=O)NCc1ccccc1 (stereo unspecified),inactive
6,Brc1ccc(-c2csc(Nc3nc(-c4ccc(Br)cc4)cs3)n2)cc1,"inconclusive [inhibitor, full curve, poor fit]"
7,COCCn1nnnc1C(c1cc2ccc(C)cc2[nH]c1=O)N(Cc1ccco1)Cc1cccs1 (stereo unspecified),"inconclusive [inhibitor, single point]"
8,O=C1c2ccccc2NC(c2cccc([N+](=O)[O-])c2)N1CCc1ccccc1 (stereo unspecified),"inconclusive [inhibitor, partial curve, poor fit]"
9,CCCCNC(=O)c1onc(CSc2ccc(C(C)C)cc2)c1C(=O)O,"inconclusive [inhibitor, partial curve]"
10,COc1ccc2cc(C(C)C(=O)N3CCC(C)CC3)ccc2c1 (stereo unspecified),"inconclusive [inhibitor, single point]"
11,COc1ccccc1NC(=O)C1=C(C)Nc2nnnn2C1c1cccc(C)c1 (stereo unspecified),"inconclusive [inhibitor, partial curve, poor fit]"
12,COc1ccc(NC(=O)C2(N(C(=O)Cn3nnnc3N)c3ccc(OC)cc3)CCCCC2)cc1,"inconclusive [inhibitor, partial curve, poor fit]"
13,O=C(CC(c1ccco1)S(=O)(=O)c1ccccc1)c1ccc(F)cc1 (stereo unspecified),inactive
14,CCn1cc(CN2CCC(n3nccc3NC(=O)CCCc3ccccc3)CC2)cn1,inactive
15,CC1CCN(S(=O)(=O)c2cccc(C(=O)Nc3ccccc3)c2)CC1,"inconclusive [inhibitor, partial curve, poor fit]"
16,C=CCc1ccc(OC(=O)NC2CCCCC2)c(OC)c1,inactive
17,O=C(CN1CCCC1)N/N=C/c1c(O)ccc2ccccc12,active: 2.82 µM
18,O=C(NC1CCCc2ccccc21)c1cccc(Br)c1 (stereo unspecified),"inconclusive [inhibitor, single point]"
19,CC(C)(O)C#Cc1ccc(N2C(c3ccsc3)=Cc3ccc(F)cc3C2c2c[nH]c3ccc(C#N)cc23)cc1 (stereo unspecified),"inconclusive [inhibitor, partial curve, poor fit]"
20,COc1ccc(C(CNC(=O)C(C)(C)Oc2ccc(Cl)cc2)N2CCCCC2)cc1 (stereo unspecified),"inconclusive [inhibitor, partial curve, poor fit]"
21,CC(Cl)C(=O)NN=C(c1ccccc1)c1ccccc1 (stereo unspecified),"inconclusive [inhibitor, single point]"
22,COc1ccc(NC(=O)c2sc(Cl)nc2-c2ccccc2)cc1,"inconclusive [inhibitor, partial curve, poor fit]"
